The whole screen tested about 390,000 compounds, of which about 930 (0.24%) were called active. The shares of active, inactive and inconclusive entries below differ from those in the screen. Calls follow the shape of the dose curve; as a rule, active = well fitted activation curve with a large enough effect; inconclusive = small, poorly fitted or top-dose-only effect; inactive = no such curve, though single readings can be large or run the other way. A potency beside an inconclusive call is a rough fit, not a confirmed value.
Assay: qHTS for Suppressors of FUS Proteinopathy: Primary screen using FUS-linked yeast assay; also: nearly all actives have a fitted effect of over 55% in size;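 as to growth rescue (activation): plate controls were DMSO vehicle for no effect and reference control for full effect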
Details: S. cerevisiae FUS-expressing, OD600, 24 h; Potency: growth rescue; growth rescue (activation): at 76.6 µM (top of the series)
Procedure, shortened: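 FUS-expressing yeast, raffinose-pregrown, induced in 2% galactose minimal medium at OD 0.005; compounds in a dilution series, 24hr at 30C. Growth restoration read as absorbance at 600 nm. CP55940 positive control, DMSO negative.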
Potency is read from the fitted curve at half-maximal effect; tags tell the direction and shape of the fitted curve.

SMILES	Potency	growth rescue (activation)
CC[C@H](C)/C=C(C)/C=C/C1=CC2=C(Cl)C(=O)[C@](C)(OC(C)=O)C(=O)C2=CO1	inconclusive: 44.7 µM [activator, single point]	–
COc1ccccc1OP(=O)(Nc1ccc(Br)cc1)Oc1ccccc1OC	inactive	–
CCOc1ccccc1OCC(=O)Nc1ccc(Cl)cc1C(=O)c1ccccc1	inconclusive: 10 µM [activator, full curve]	–
O=C(O)CCC(=O)NCCC1=c2ccccc2=N/C1=C\c1c(O)n(Cc2ccc(F)cc2)c(=S)[nH]c1=O	active: 20 µM	–
CCn1c(=O)n(CC(=O)N2CCC3(CC2)OCCO3)c(=O)c2ccccc21	inactive	–
COc1ccc(Cn2c(O)c(C=NCCCn3ccnc3)c(=O)[nH]c2=O)cc1	–	inconclusive: 93.2% [activator]
C=C(C=O)CC1CC(O)[C@]2(C)OC3CC4OC5C[C@]6(C)O[C@]7(C)CCC8OC9C[C@]%10(C)OC%11C(C)=CC(=O)OC%11CC%10OC9C[C@@H](C)C8OC7CC6O[C@]5(C)C/C=C\C4OC3CC2O1 (stereo partly drawn)	inconclusive: 14.1 µM [activator, partial curve, poor fit]	–
CCC(=NCc1ccco1)c1c(O)n(-c2ccc(C)cc2)c(=O)[nH]c1=O	inconclusive: 2.24 µM [activator, full curve, poor fit]	–
O=C(c1ccco1)c1cn(Cc2ccc(Cl)cc2)c2ccccc12	inactive	–
CCc1ccc(-n2nc(C)c3c2NC(=O)CSC3c2ccc(OC)cc2OC)cc1 (stereo not drawn)	inconclusive: 22.4 µM [activator, single point]	–
COc1ccc(NC(c2ccccc2F)P(=O)(Oc2ccccc2)Oc2ccccc2)cc1 (stereo not drawn)	inactive	–
CN1CCc2nc3sc(C#N)c(N)c3c(-c3cccs3)c2C1	inconclusive: 35.5 µM [activator, partial curve]	–
COc1ccc(-c2nc(CN3C(=O)CN=C(c4ccccc4Cl)c4cc(Cl)ccc43)c(C)o2)cc1OC	inconclusive: 25.1 µM [activator, partial curve, poor fit]	–
Cc1ccnc(-n2c(C)cc(C=C3C(=O)N(C)C(=S)N(C)C3=O)c2C)c1	inconclusive: 15.8 µM [activator, partial curve]	–
COC(=O)C1=Nc2ccccc2/C1=C\c1c(O)n(-c2ccc(Br)cc2)c(=O)[nH]c1=O	inactive	–
COc1cc(/C=N/NC(=O)CN2CC(c3ccccc3)CC2=O)ccc1OC(=O)N(C)C (stereo not drawn)	–	inconclusive: 73.8% [activator]
O=C1c2ccccc2-c2cccc3cccc1c23	inactive	–
C[C@H]1CC[C@@]2(C)[C@@H](CC[C@@H]3[C@@H]2CC[C@]2(C)[C@@H](O)CC[C@@H]32)C1	inactive	–
Cc1cccc(CN2C(=O)CN=C(c3ccccc3)c3cc(Cl)ccc32)c1	inconclusive: 22.4 µM [activator, single point]	–
O=C(CN1CCN(C(=O)COc2cccc(F)c2)CC1)Nc1ccc(Cl)c(C(F)(F)F)c1	inconclusive: 15.8 µM [activator, partial curve, poor fit]	–

SMILES	Potency	growth rescue (activation)
COC(=O)C1=C(c2ccc(OC(F)(F)F)cc2)C[C@@H]2CC[C@H]1N2C(=O)NCC1CC1	inconclusive: 8.91 µM [activator, partial curve]	–
CN(C)C(=O)Oc1c(Cl)cc(Cl)c2cccnc12	inactive	–
CCc1nnc(NS(=O)(=O)c2ccc(N=Cc3c(O)n(-c4ccc(Cl)cc4)c(=O)[nH]c3=O)cc2)s1	inconclusive: 8.91 µM [activator, partial curve]	–
C[C@]12CC[C@H]3[C@@H](CCC4=CC(=O)CC[C@@]43C)[C@@H]1CC[C@@H]2O	inactive	–
CO[C@H]([C@H](C)/C=C/N(C)C=O)[C@@H](C)C(=O)CC[C@H](C)[C@H](O)[C@H](C)[C@H]1OC(=O)/C=C/C(C)=C/[C@H](O)[C@H](OC)C[C@@H]2C=CC[C@@H](C[C@H](OC)[C@@H](CO)[C@@H](OC)C[C@@H](OC)[C@@H]1C)O2	inconclusive: 8.91 µM [activator, full curve]	–
COc1ccc(-n2nnnc2C(c2cccs2)N2CCC(n3c(=O)[nH]c4ccccc43)CC2)cc1 (stereo not drawn)	inconclusive: 12.6 µM [activator, partial curve, poor fit]	–
Cc1nc2cc(OC(=O)N(C)Cc3cccc(-c4ccncc4)c3)ccc2s1	inactive	–
N[C@@H](Cc1c[nH]c2ccccc12)c1nnc(SCc2c(F)cccc2Cl)o1	inconclusive: 12.6 µM [activator, full curve, poor fit]	–
COC(=O)C1=C(c2ccccc2OCc2ccccc2)C[C@@H]2CC[C@H]1N2C(=O)NCCOc1ccc(OC)cc1	inconclusive: 12.6 µM [activator, partial curve]	–
CC(Cc1ccccc1)NC(=O)C(c1ccc(N)cc1)c1ccc(N)cc1 (stereo not drawn)	inconclusive: 50.1 µM [activator, single point]	–
COC(=O)C1=C(c2ccc3ccccc3c2)C[C@@H]2CC[C@H]1N2C(=O)NC1CCCCC1	inconclusive: 28.2 µM [activator, partial curve, poor fit]	–
C=CCN1C(=O)/C(=C/c2ccc3c(c2)CCCN3CCC)C(=O)NC1=S	inconclusive: 35.5 µM [activator, single point]	–
Cc1oc(-c2ccccc2)nc1CN1C(=O)C(C)N=C(c2ccccc2F)c2cc(Cl)ccc21 (stereo not drawn)	inactive	–
CC(C)[C@H]1C(=O)N2CCC[C@H]2[C@]2(O)O[C@](NC(=O)[C@@H]3C=C4c5cccc6[nH]cc(c56)C[C@H]4N(C)C3)(C(C)C)C(=O)N12	inconclusive: 15.8 µM [activator, single point]	–
CNc1ccc2nc3ccccc3[n+](C)c2c1	inactive	–
O=C(Cc1c[nH]c2ccccc12)NNCc1ccc(N(CCCl)CCCl)cc1	inconclusive: 20 µM [activator, partial curve, poor fit]	–
S=C(NCCc1ccccc1)N1Cc2cc(N3CCOCC3)ccc2-n2nncc2C1	inconclusive: 17.8 µM [activator, partial curve]	–
COCCCn1c(N)c(C(=O)NCCC(C)C)c2nc3ccccc3nc21	inconclusive: 35.5 µM [activator, single point]	–
COc1ccc(C(c2nnnn2-c2c(C)cccc2C)N2CCC3(CC2)C(=O)NCN3c2ccccc2)cc1 (stereo not drawn)	inconclusive: 8.91 µM [activator, partial curve, poor fit]	–
CN(C)c1ccc(NC(=O)CN2C(=O)CN=C(c3ccccc3)c3ccccc32)cc1	inconclusive: 15.8 µM [activator, partial curve, poor fit]	–

SMILES	Potency	growth rescue (activation)
O=c1c2ccccc2nc(-c2cccs2)n1-c1ccccc1	inactive	–
Nc1c(C(=O)NCc2ccco2)c2nc3ccccc3nc2n1CCN1CCCCC1	inconclusive: 7.94 µM [activator, partial curve, poor fit]	–
CCCCn1c(O)c(C(CC)=NCc2ccc(F)cc2)c(=O)[nH]c1=O	inconclusive: 35.5 µM [activator, partial curve, poor fit]	–
COc1ccc(C2C(C(=O)N3CCC4(CC3)OCCO4)CC(=O)N2c2ccc(OC)cc2)cc1 (stereo not drawn)	inconclusive: 31.6 µM [activator, single point]	–
C[C@]12CC[C@H](O)C[C@@H]1CC[C@@H]1[C@@H]2CC[C@]2(C)[C@@H](C(=O)O)C[C@@H]12	inactive	–
COc1ccc2c(c1)CC1(CN2C)C(=O)NC(=O)N(c2ccc(C)cc2)C1=O (stereo not drawn)	inconclusive: 28.2 µM [activator, single point]	–
CN1C(=O)[C@@]23C[C@]4(c5c[nH]c6ccccc56)c5ccccc5N(S(=O)(=O)c5ccccc5)[C@@H]4N2C(=O)[C@@H]1SS3	inconclusive: 12.6 µM [activator, partial curve, poor fit]	–
O=c1[nH]c2ccccc2n1C1CCN(C(CCc2ccccc2)c2nnnn2C2CCCC2)CC1 (stereo not drawn)	inconclusive: 11.2 µM [activator, partial curve]	–
CN1/C(=C\C=C2C(=O)NC(=O)NC2=O)C(C)(C)c2ccccc21	inactive	–
Cc1cc(O)c2c(c1)C(=O)[C@@]13C(=C2O)C(=O)[C@H]2C(O)[C@@H]1[C@H]1C(O)[C@@H]3C(=O)C3=C(O)c4c(O)cc(C)cc4C(=O)[C@@]312 (stereo partly drawn)	inactive	–
Oc1ccccc1-[n+]1c(-c2ccccc2)cc(-c2ccccc2)c(O)c1-c1ccccc1	inconclusive: 44.7 µM [activator, single point]	–
COC(=O)C1=C(c2c(C)noc2C)C[C@@H]2CC[C@H]1N2C(=O)N1CCC(O)(c2ccc(Cl)cc2)CC1	inconclusive: 12.6 µM [activator, partial curve]	–
CC[C@H](C(N)=O)N1CCCC1=O	inactive	–
CC1=CC(=O)OC2CC3OC4C[C@@H](C)C5OC6CC7O[C@]8(C)C/C=C\C9OC%10CC%11OC(CC(C)CO)CC(O)[C@]%11(C)OC%10CC9OC8C[C@]7(C)O[C@]6(C)CCC5OC4C[C@]3(C)OC12 (stereo partly drawn)	inconclusive: 2.82 µM [activator, full curve, poor fit]	–
CC1CN1c1cc2c(c3c1ccn3C)C1CCC2C1 (stereo not drawn)	inconclusive: 50.1 µM [activator, single point]	–
O=C(c1ccc2c(c1)N(Cc1ccc(F)cc1Cl)C(=O)c1ccccc1S2)N1CCC2(CC1)OCCO2	inactive	–
CCC(=Nc1ccc(OC)cc1OC)c1c(O)n(C2CCCCC2)c(=O)[nH]c1=O	inconclusive: 28.2 µM [activator, single point]	–
C=CC[C@@H](CC/C=C/C=C/CC/C=C\[C@@H]1CSC([C@@H]2C[C@@H]2C)=N1)OC	inconclusive: 22.4 µM [activator, single point]	–

From PubChem BioAssay AID1347120 (National Center for Advancing Translational Sciences (NCATS), 2019)
